# Source: the supplement of paper PMC3334620
# In all, about 33,000 sequences were measured (“E-score (-0.5 to 0.5)”: median about -0.017, highest 2% from about 0.3 on). This is one part of the list.
# Target: T1, Sut1 (UniProt P53032)
# T1 sequence: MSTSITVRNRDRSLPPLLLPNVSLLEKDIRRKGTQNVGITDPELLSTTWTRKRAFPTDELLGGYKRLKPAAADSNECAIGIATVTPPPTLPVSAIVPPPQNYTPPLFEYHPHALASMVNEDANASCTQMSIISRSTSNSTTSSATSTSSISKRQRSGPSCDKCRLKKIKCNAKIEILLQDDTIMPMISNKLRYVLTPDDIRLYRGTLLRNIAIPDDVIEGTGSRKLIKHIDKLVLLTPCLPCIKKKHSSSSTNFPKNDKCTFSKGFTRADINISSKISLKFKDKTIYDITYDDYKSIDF
# Assay: PBM E-score (8-mer binding enrichment) (E-score (-0.5 to 0.5)); higher = stronger / more preferred TF binding; most listed sequences are background and not binding sites
# Details: protein concentration: 200 nM; construct: GST-full length
# How it was run: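 Using PURExpress in vitro transcription/translation, GST-tagged yeast transcription factors were made in full-length or DNA-binding-domain form. These were applied at about 100-200 nM to double-stranded universal all-10-mer Agilent arrays, and bound protein was detected with fluorescent anti-GST. Scans were normalised with masliner before the Universal PBM Analysis Suite assigned E-scores to ungapped eight-base words pooled with their reverse complements.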
row,Sequence,PBM E-score
1,AAGCCAGC,-0.16
2,CCGGCCTA,0.0314
3,CTTCTATC,-0.00493
4,ATCATTAC,0.23
5,ATACTGTG,-0.145
6,ATTACTCG,0.0802
7,ATGTGAGA,0.147
8,CGTGGCTC,-0.207
9,ATAGTCGC,-0.0441
10,CAACCCTA,-0.122
11,CCTCGCCC,-0.307
12,ACCACTCA,-0.156
13,CCGCATTC,-0.0255
14,CGCGGCCA,-0.212
15,AATGGCTG,-0.115
16,AGAACTTG,0.0896
17,CATCCTCC,-0.292
18,GTAGCTTA,0.165
19,ACAAGAAC,0.264
20,TATCTACA,0.107
21,CCGCCATC,-0.0257
22,GAGGTAAC,-0.145
23,ACGGGGCT,-0.0661
24,CTAATCAG,0.0614
25,GTTGATTA,0.166

row,Sequence,PBM E-score
1,CAGCACAA,0.028
2,CACCGAGA,-0.0582
3,AAGCGGGA,-0.0553
4,ACAGCGGA,0.122
5,CCAACTGC,-0.137
6,AACCGCAC,-0.108
7,CTCTACAA,-0.0259
8,GGGTCAGA,-0.289
9,AGATACAA,0.279
10,CATCATTA,0.191
11,CACAATGG,0.0142
12,AGCATATA,0.102
13,AGCGGCGG,0.088
14,GAGCATGC,-0.119
15,TTATATAA,0.358
16,CCTTGATC,-0.208
17,CGCCCCAG,-0.179
18,ACATGAAG,0.0557
19,CATAAACG,-0.0226
20,ACACATCG,-0.0707
21,ATTGCTTA,0.138
22,ACCAGAAT,0.0765
23,ATAACGGC,0.00713
24,CTGTCGCA,-0.0571
25,ATTTGCAC,0.0239

row,Sequence,PBM E-score
1,CAGCTTAG,-0.146
2,GCCCGCCA,-0.227
3,CCACAGCG,-0.173
4,GGCGTCAA,-0.094
5,ATTTTGTG,0.239
6,ACCCGCAT,0.0722
7,CGTACATC,-0.0591
8,ATGAGGGG,-0.364
9,ATACTCAC,0.0457
10,GAGTAAGC,-0.12
11,GCACATGC,-0.208
12,GATTAGAC,0.0621
13,AGCGGACC,0.00064
14,CCGGATTA,0.213
15,GGTGCTAC,-0.0972
16,GAGGTCAA,-0.0984
17,GCGGTCCA,-0.186
18,AGCGTAGG,-0.0355
19,ATCCAACC,0.0521
20,GAAGAGGC,-0.219
21,CGTCCGGC,-0.0125
22,CCGGTTCA,-0.00765
23,AAACCGGT,-0.0411
24,AACATCCT,-0.105
25,GCTGGAGA,-0.247

row,Sequence,PBM E-score
1,GATGCCGA,0.0413
2,GGCGTGAC,-0.197
3,GTATAACA,0.215
4,ACACTTGC,-0.0671
5,GCCGGGTA,-0.268
6,AGACGGCT,-0.121
7,GCTGAGAC,-0.124
8,GATGCAAA,0.0876
9,GCTAATGA,-0.126
10,AGGCCTAT,-0.166
11,CGAGCTAA,0.116
12,CCTTAGAA,-0.182
13,GTTCACAA,0.15
14,AAATGGTA,0.288
15,CTTGATCC,0.0468
16,AAAATGCC,0.0303
17,GATAACTA,0.157
18,CTAGCATA,0.061
19,AAGGAGTC,-0.0614
20,CTGAGCGC,-0.189
21,AACCCGTA,-0.0786
22,GCTCGCCC,-0.294
23,AAATCTGC,0.0274
24,ATTGACAC,-0.119
25,ACTGATAC,-0.0584

row,Sequence,PBM E-score
1,CGGAAGGA,0.0973
2,ATGGTTCA,0.0618
3,TACGTCTA,0.00038
4,GGCCGGGA,-0.0623
5,CAGATAGC,-0.0832
6,AAGTACTT,-0.049
7,AATCACAT,0.139
8,AGGTCGTC,-0.0711
9,ACACAGCC,-0.162
10,CGACACAA,-0.149
11,GCTGCGAA,0.0328
12,AGATCACT,0.194
13,GGTTCTTA,0.16
14,CAGTTGAG,-0.124
15,GACTCTCA,0.158
16,ACACACAT,0.0403
17,GCCTCGGA,0.198
18,GTGCACCA,-0.1
19,ACATAAGC,0.0566
20,ATACTCAG,0.0528
21,AGAGACCT,-0.105
22,CCATGATA,0.0658
23,GATTCGGA,0.385
24,ACGTGTCG,-0.12
25,TCCCTCAA,-0.221

row,Sequence,PBM E-score
1,GCTAGGAC,-0.0531
2,CCTACCCA,-0.21
3,GGATATAA,0.248
4,CATTGGCC,-0.363
5,ATGGTCGC,-0.185
6,CATCTAGA,0.0544
7,ACTTTTAG,0.136
8,TGTTAACA,0.0907
9,CAGCGGGG,-0.149
10,CATGGTAG,-0.0975
11,AAAGACGT,-0.0316
12,GATACAAA,0.112
13,AAAACGGA,0.244
14,CATTGTAC,0.0761
15,CGTATCAC,-0.119
16,ACAGCAAC,0.111
17,GTTTCCTA,0.0631
18,ATCCTAAG,-0.175
19,ACTTCAGC,-0.142
20,GATAGGAA,-0.0386
21,GGATTACC,0.0282
22,TGTGACAA,0.0467
23,CTTACCCA,-0.0173
24,TTCCAGAA,0.139
25,AGGATCAG,-0.268

row,Sequence,PBM E-score
1,GAGATACA,0.255
2,CTGCAATA,0.0791
3,AGAACGCT,-0.0146
4,GACCTACA,0.0326
5,AAGAAATT,0.313
6,CCAATACG,-0.033
7,GACACGGA,0.296
8,AAGCGTGG,-0.0235
9,GCTCTTAC,0.132
10,CCGCGGTA,0.0295
11,CAACGAGA,-0.001
12,TGCTCAAA,0.0837
13,GAGGGTCA,-0.207
14,GTACATGA,0.103
15,CAACGAGG,-0.11
16,CATAAGCC,-0.0821
17,CACCACGC,-0.276
18,TCTAGTCA,0.0751
19,CTGGCATA,-0.042
20,CGTATGCA,-0.0505
21,AGAGAGGC,-0.143
22,AAAAGAGT,0.0645
